Assay results from the supplement of paper PMC4166925.
± gives the standard deviation of the averaged measurements. Over roughly 33,000 sequences, “E-score (dimensionless, -0.5 to 0.5)” has its median near -0.049; the highest 2% begin near 0.37. The list shows a part of the results.

System: T1, PmTbr T-box DNA-binding domain (GST fusion)
T1 sequence: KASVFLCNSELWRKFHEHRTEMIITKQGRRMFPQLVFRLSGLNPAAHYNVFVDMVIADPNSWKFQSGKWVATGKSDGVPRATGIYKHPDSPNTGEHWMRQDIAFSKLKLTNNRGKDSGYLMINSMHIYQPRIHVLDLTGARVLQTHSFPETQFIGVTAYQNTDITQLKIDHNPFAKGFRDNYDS
Experiment: PBM E-score of 8-mer (E-score (dimensionless, -0.5 to 0.5)); Tbr is Tbrain of the sea star Patiria miniata (Pm) or the sea urchin Strongylocentrotus purpuratus (Sp); higher = stronger binding preference; most listed sequences are background and not binding sites
Settings: the construct has about 5 more residues each side
Outline: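 Primer extension turned Universal Agilent oligonucleotide arrays double-stranded. They were incubated with 200 nM protein in PBS (pH 7.5); the protein was a GST-fused Tbr T-box DNA-binding domain expressed in BL21 E. coli at 20 °C and purified on glutathione. Every ungapped 8-mer was scored from the scanned, quantified probe intensities, and the Universal PBM Analysis Suite gave each an enrichment E-score averaged over duplicate arrays.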

Sequence	PBM E-score of 8-mer
ACGATTCA	-0.0344 ± 0.0071
AGGGTAAT	-0.215 ± 0.023
CGCTCCCC	0.0654 ± 0.012
TCCTCAAA	-0.211 ± 0.018
AGTGCACA	0.0476 ± 0.052
AATATGGC	-0.033 ± 0.04
AGCCTGTC	-0.00536 ± 0.037
CAAAATGC	-0.128 ± 0.053
CCATGAGA	-0.145 ± 0.059
GCTATGTA	-0.0444 ± 0.035
AGGGTTAT	-0.0299 ± 0.011
ATCAGTGG	-0.0659 ± 0.059
GTGGGATA	0.203 ± 0.03
ACATTGGG	0.0368 ± 0.014
ACCAGGCA	-0.00462 ± 0.024
ATTCTACA	-0.0686 ± 0.048
AGAGGGCC	-0.265 ± 0.0075
AAATTGGG	-0.0203 ± 0.044
TACTTAGA	0.0947 ± 0.0054
CTAACGCC	0.355 ± 0.018
AGCTCTCC	-0.169 ± 0.029
CTTTTATA	-0.0188 ± 0.06
TACAACCA	-0.114 ± 0.086
ACGAATCC	-0.133 ± 0.064
CCTTACAG	-0.0186 ± 0.048

Sequence	PBM E-score of 8-mer
CCGCAGTC	-0.24 ± 0.05
TTGATCAA	-0.0605 ± 0.058
ACGGACGA	-0.246 ± 0.066
GTTGCGGA	-0.0911 ± 0.023
CAGTAACA	0.0951 ± 0.01
CCAAGCCC	-0.214 ± 0.048
AGCATCTG	0.0114 ± 0.12
ATGTTTTA	-0.132 ± 0.033
TAACCTGA	-0.102 ± 0.058
AGAGAGCC	-0.245 ± 0.015
CCACGGTA	-0.141 ± 0.005
ACGCGCTG	0.24 ± 0.029
GTCACCAA	0.198 ± 0.035
AATGGGGA	-0.2784 ± 0.0015
TGGGGGAA	-0.199 ± 0.014
GACACAAC	0.256 ± 0.013
AAACAGTA	-0.114 ± 0.014
GCATATGA	0.0468 ± 0.048
CGAGCCTA	-0.0651 ± 0.086
AATGGGCG	0.0767 ± 0.0051
AAGAGTTA	-0.112 ± 0.022
CCTTTAGC	0.195 ± 0.063
CATACCGC	0.00102 ± 0.04
AGCTCGTG	0.111 ± 0.0061
GCCTCCAC	-0.112 ± 0.029

Sequence	PBM E-score of 8-mer
AAACGTTT	-0.271 ± 0.12
CTGCACGA	-0.112 ± 0.017
ACCGATCC	0.0264 ± 0.04
GAGGAGAC	0.00924 ± 0.026
CTGTGCCC	-0.118 ± 0.013
AGTGTTCA	0.179 ± 0.031
ACCCGTCC	-0.164 ± 0.017
GAAACCAA	-0.0337 ± 0.053
ACGTGCTG	0.165 ± 0.034
AAGCGCGC	0.106 ± 0.015
TCCTAGAA	-0.0822 ± 0.13
ATAGGGCC	-0.194 ± 0.043
TCCGGGCA	-0.052 ± 0.032
CCGAGTTC	-0.2711 ± 0.00051
CGATACGC	-0.00908 ± 0.043
CCTCGATC	0.0184 ± 0.014
CACCAATC	0.26 ± 0.023
ACGAGTCT	-0.145 ± 0.05
CTGGCAGA	-0.0491 ± 0.083
CTACGTCA	-0.0358 ± 0.0037
CACGTTAG	0.317 ± 0.0066
ACAGCGGT	0.0264 ± 0.093
GGCGTTAA	0.377 ± 0.024
GTCAACTA	0.0717 ± 0.051
ATCACGGA	-0.0356 ± 0.0075

Sequence	PBM E-score of 8-mer
ACAGAGCC	-0.0935 ± 0.015
CCGTGTCG	0.144 ± 0.045
ACTCGATA	0.145 ± 0.037
CATCGAAA	-0.147 ± 0.092
AATGTCGG	-0.0392 ± 0.026
CCCCTATA	-0.132 ± 0.02
AATACGCG	0.069 ± 0.078
TATCATCA	-0.0199 ± 0.08
GAATCAGC	-0.184 ± 0.045
CCAAAGCG	0.105 ± 0.0049
ATATTGGG	-0.224 ± 0.017
AGTTAACT	-0.159 ± 0.025
CATGTCAA	-0.00945 ± 0.065
AATGACCC	-0.141 ± 0.071
ATCTCAAC	0.0437 ± 0.036
CCCTATTA	-0.153 ± 0.013
ACAGGGTG	0.339 ± 0.042
AGAGCGCG	0.147 ± 0.045
CAGGCCAA	-0.135 ± 0.042
CAATGAAC	-0.0316 ± 0.025
ACACCACG	0.3698 ± 0.0022
ACCATGAG	-0.0468 ± 0.087
CTATCGTA	-0.125 ± 0.019
CAATTTTC	0.0462 ± 0.0084
AGATCCTC	-0.222 ± 0.038

Sequence	PBM E-score of 8-mer
AGGGGGCA	-0.2819 ± 0.00085
ATCTGTTA	0.25 ± 0.037
CGATCCCA	-0.16 ± 0.14
AAGAAACT	-0.00862 ± 0.064
AACATAAT	-0.06 ± 0.035
ATTATGGC	-0.00349 ± 0.0047
CAAAATGA	-0.0745 ± 0.041
GTGGTATA	-0.0535 ± 0.055
CCCCCTGA	-0.0635 ± 0.0079
ACGAGCAA	0.00985 ± 0.047
CCTTATCC	-0.0714 ± 0.035
GCCCAGGC	-0.195 ± 0.014
ACTGCAAT	0.0329 ± 0.01
CGCCGAAG	-0.206 ± 0.045
ACCACTGG	0.0522 ± 0.047
CGACCACA	0.0507 ± 0.089
ACTCGCGA	0.38 ± 0.0065
GACGCGCC	0.192 ± 0.0041
AGCAGCAG	-0.231 ± 0.0088
ACAACGAA	-0.164 ± 0.099
ACAATTCC	-0.0659 ± 0.015
ATCGTTTA	0.0333 ± 0.024
AGCTGGAG	-0.155 ± 0.11
ATGCGCCC	-0.259 ± 0.0049
GACAGTAA	0.153 ± 0.037

Sequence	PBM E-score of 8-mer
TGAATAAA	0.123 ± 0.056
ATGAAGGG	-0.229 ± 0.05
CGTTGGGA	-0.0875 ± 0.00071
CTACGGAG	-0.298 ± 0.03
GCCAGACC	-0.0581 ± 0.014
AGGGCTTG	-0.279 ± 0.087
CAAGCTAC	-0.142 ± 0.065
CGGGATAG	-0.0663 ± 0.1
CCGCCGGA	-0.0902 ± 0.034
GCTCACGA	-0.0428 ± 0.019
GATTGTCC	-0.233 ± 0.009
ATGCGTGA	0.328 ± 0.023
ATGCTGTC	0.0533 ± 0.011
AACCAAGC	-0.181 ± 0.0088
ACAGTTAC	0.0628 ± 0.0017
AACCACGC	0.0172 ± 0.086
ACAATATC	0.0442 ± 0.011
CGGTCGGA	-0.277 ± 0.052
CTATGGTA	-0.1961 ± 0.0016
GACCATAA	0.141 ± 0.011
CGCGTACA	0.0502 ± 0.0097
AGTGCGTC	-0.147 ± 0.029
TAAAGGAA	-0.237 ± 0.0043
CGTAGACC	-0.276 ± 0.096
AGCGTTCG	0.214 ± 0.068

Sequence	PBM E-score of 8-mer
ATAGGGCG	0.0669 ± 0.081
ATAAGCCA	-0.233 ± 0.015
ACAGGTGG	0.331 ± 0.022
CGCCCACA	0.156 ± 0.047
ATGCTACA	-0.00854 ± 0.041
AAGGTAGC	0.136 ± 0.031
CCTGCACG	0.0214 ± 0.042
CGTAAGAA	-0.0628 ± 0.11
CTATTGAC	-0.0881 ± 0.003
AGAGCTGC	-0.0211 ± 0.037
AGTATAGC	0.0478 ± 0.033
GATAATCC	0.0503 ± 0.0044
AAGTCCCT	-0.0395 ± 0.055
GGAGAAGA	-0.2914 ± 0.0019
TCCCCTCA	-0.125 ± 0.032
CTTTGCTA	0.0888 ± 0.023
GCGTTTAC	-0.00072 ± 0.015
CGCCGTAA	0.014 ± 0.027
CTGCTCGA	-0.217 ± 0.031
AAACTCGA	-0.034 ± 0.065
CAGAAGAC	-0.188 ± 0.011
CGCGTGCC	0.0704 ± 0.011
